According to the supplement of paper PMC3334620:
Over roughly 33,000 sequences, “E-score (-0.5 to 0.5)” has its median near -0.053; the highest 2% begin near 0.37. This is one part of the list.

The sequences below were run against Hap1 (UniProt P0CE41) (assay: PBM E-score (8-mer binding enrichment) (E-score (-0.5 to 0.5)); higher = stronger / more preferred TF binding; most listed sequences are background and not binding sites). Conditions: protein concentration: 200 nM; construct: GST-DNA-binding domain.
Procedure, shortened: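 Detection of bound protein used fluorescent anti-GST, with scans normalised by masliner. The proteins were GST-tagged yeast transcription factors applied at about 100-200 nM to universal all-10-mer Agilent arrays made double-stranded by primer extension. Each ungapped eight-base word, pooled with its reverse complement, was scored with an E-score from the Universal PBM Analysis Suite.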

UniProt P0CE41, sequence (P0CE41 whole entry, the tested form may be a part): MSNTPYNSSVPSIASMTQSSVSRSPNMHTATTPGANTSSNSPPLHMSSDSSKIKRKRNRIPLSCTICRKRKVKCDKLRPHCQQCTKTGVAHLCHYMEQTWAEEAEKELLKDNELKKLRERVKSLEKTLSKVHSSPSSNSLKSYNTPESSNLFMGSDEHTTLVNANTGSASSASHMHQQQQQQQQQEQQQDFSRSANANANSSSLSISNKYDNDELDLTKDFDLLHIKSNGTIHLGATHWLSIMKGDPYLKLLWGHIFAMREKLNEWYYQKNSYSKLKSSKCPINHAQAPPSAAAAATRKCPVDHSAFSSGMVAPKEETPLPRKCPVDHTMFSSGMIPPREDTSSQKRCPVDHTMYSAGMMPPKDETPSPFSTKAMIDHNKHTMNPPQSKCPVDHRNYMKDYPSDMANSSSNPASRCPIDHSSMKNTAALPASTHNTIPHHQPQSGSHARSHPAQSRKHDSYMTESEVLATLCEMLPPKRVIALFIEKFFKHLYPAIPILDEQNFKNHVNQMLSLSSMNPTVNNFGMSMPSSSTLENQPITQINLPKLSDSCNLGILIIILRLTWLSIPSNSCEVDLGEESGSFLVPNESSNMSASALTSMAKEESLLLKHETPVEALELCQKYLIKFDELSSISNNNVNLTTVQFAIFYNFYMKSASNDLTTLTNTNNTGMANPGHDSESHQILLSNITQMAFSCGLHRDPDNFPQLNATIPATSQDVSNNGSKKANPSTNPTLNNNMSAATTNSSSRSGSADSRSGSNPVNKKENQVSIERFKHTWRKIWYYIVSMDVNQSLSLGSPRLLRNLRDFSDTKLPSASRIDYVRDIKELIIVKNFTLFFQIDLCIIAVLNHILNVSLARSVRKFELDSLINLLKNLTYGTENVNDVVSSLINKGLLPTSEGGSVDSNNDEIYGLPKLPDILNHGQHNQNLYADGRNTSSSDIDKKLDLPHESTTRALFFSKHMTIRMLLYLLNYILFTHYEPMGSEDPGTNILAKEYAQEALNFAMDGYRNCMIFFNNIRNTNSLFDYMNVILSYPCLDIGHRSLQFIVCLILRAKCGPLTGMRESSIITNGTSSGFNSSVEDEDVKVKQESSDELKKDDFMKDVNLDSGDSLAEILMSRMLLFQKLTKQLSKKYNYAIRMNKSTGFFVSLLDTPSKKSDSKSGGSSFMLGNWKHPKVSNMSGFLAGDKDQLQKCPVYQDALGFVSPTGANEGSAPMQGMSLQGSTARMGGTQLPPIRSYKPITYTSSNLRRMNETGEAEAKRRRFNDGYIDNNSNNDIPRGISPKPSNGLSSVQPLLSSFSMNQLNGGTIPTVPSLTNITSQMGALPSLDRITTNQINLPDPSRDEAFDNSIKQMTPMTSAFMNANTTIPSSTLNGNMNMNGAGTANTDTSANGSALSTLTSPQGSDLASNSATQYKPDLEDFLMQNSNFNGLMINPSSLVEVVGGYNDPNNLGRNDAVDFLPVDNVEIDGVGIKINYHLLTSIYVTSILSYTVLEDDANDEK

Sequence	PBM E-score
GCACTCAC	-0.175
GCGAGCGC	0.137
GGCTTAAA	0.165
CTCTCAAA	-0.231
AAGCTGGT	-0.198
TGAAGCCA	-0.215
ATAACAGC	0.157
CCACGTTC	-0.0716
ATTGCTTG	-0.285
GGTAAGGA	-0.157
CGTCCACC	-0.0148
AAAACAAT	-0.025
TCACGCCA	-0.166
GTCCAAGA	-0.271
AATAATAA	-0.00534
AGACTCCA	-0.28
AAGTACCA	-0.0621
TATAGGCA	-0.161
TAGTTGAA	-0.138
AATTAAAT	-0.0668
CAGCCGAG	0.238
CCATTTCC	0.113
GCGTTTTA	-0.0109
CACGATAC	0.0318
CTGTCTCA	-0.152

Sequence	PBM E-score
CAATATCC	0.239
CCGGCTCC	0.296
AGTGCGGA	0.237
AGGGCCAC	-0.161
GTTCGACA	-0.159
AAACAGAT	-0.145
AGCTTTGG	-0.135
ACGTAATG	-0.0643
AGGGTCCC	-0.138
ATCCCTGA	-0.189
GCGAAGCC	0.027
CCGAAAAG	0.311
GTGCCAAC	-0.089
TAAACTTA	-0.18
CTGTTTCA	-0.205
ATGGGAGA	-0.315
GGAGAACC	0.141
AGGCGCGG	0.0699
AAAATCGT	-0.036
CAGAGCGC	-0.16
AGATCCAT	-0.00855
GATTAGGA	0.0759
CTCAGGAA	-0.108
AGTTTAAG	-0.206
CTGAGACA	-0.237

Sequence	PBM E-score
TTAAGCAA	-0.0763
CCGCGTTA	0.219
ATCCAGTG	-0.0388
TAATTCTA	-0.0424
GCGCTCGA	0.05
CTCCTGGA	-0.254
GCCGGACA	0.423
ACGTCGGG	0.28
GACTGTGA	-0.22
AGCCCATA	-0.133
AGGATTCC	-0.0591
CTAGATGC	-0.224
CCATCTCC	0.209
GGCCGCCA	0.0115
AGCTCTTA	-0.0357
AGGAACCT	-0.136
ATGTTATA	-0.135
ATAGGCAA	-0.214
ACTCGCTC	-0.0161
AAATGAAA	0.0924
AGGCTTAA	-0.0524
CGTCGGAA	0.306
CGACTCGA	-0.0777
CAAGAACA	-0.233
GGTATGTA	0.0143

Sequence	PBM E-score
ATCTCCGC	0.455
CCACTTGC	-0.183
ACCCATCT	-0.0427
ACGAGGGA	-0.116
CGCAAAGC	0.189
CTCCGAAA	0.41
GAGATGGA	0.00614
CGGAGGGA	0.255
GAGAAACA	0.0153
GAGTGTGA	-0.176
CGGCCAAC	0.214
ATCCCTAA	-0.191
AAAGCCGC	0.305
GCAGCGGC	-0.00312
CACACGTA	-0.285
CCGTTGCG	0.198
ACGGTTAT	0.117
CAATGAGA	-0.207
ACCGTCCT	-0.0937
ACCAGGTA	-0.0386
AAATTGGA	-0.051
AACGATTG	-0.0367
AGGTAGTG	-0.102
CCTTGGAG	-0.109
GCGGGAAA	0.195

Sequence	PBM E-score
GAATTACA	0.0547
ATGTCGGA	0.348
GGCTGAAA	0.0341
CTCTCGCC	-0.00995
AGATCGAA	0.00519
CGTGACCC	0.0718
AGTGGCCG	0.268
CCCATCGC	0.0391
GTTTCTTA	-0.0575
AAAAGGTT	-0.211
ATTCATCC	0.0829
AGATAGTC	-0.0926
CCATAATA	0.0593
CCCTGAGG	-0.266
CAGTGATC	-0.119
TCTAGAGA	-0.337
CGTATTAG	0.00416
ACAATCGA	-0.15
ACGCGCGG	0.196
CTCATAGA	-0.236
TATACTGA	0.0129
ACAAAGTG	-0.127
ATGAGGAC	-0.104
GCCATCGC	-0.0154
CGTTTGCC	0.114

Sequence	PBM E-score
AGATAATG	0.0272
ATTATTAA	0.154
TGAAAAAA	-0.0471
CACGCCGG	0.311
AAGTGCAA	-0.176
TGTGATAA	-0.15
TGATTCAA	-0.12
CACATGGA	-0.249
TCGCCCAA	-0.162
ATGAATAC	-0.0929
CAACCGGG	0.262
GAATAAAA	0.0566
AGTCACCC	-0.139
CGTCGGTA	0.0831
TCCTAAGA	-0.0703
ATATGATG	-0.111
GTTGTAAA	-0.135
AGGGCAGC	-0.243
ATGCACAA	-0.22
AAACATGG	-0.139
ACCAGCGC	-0.167
GCTTGATA	-0.258
GCATACAA	-0.0244
AACGGGAA	0.195
ACCACGTG	-0.195

Sequence	PBM E-score
ACGTGTAG	-0.16
GCATCCCC	0.163
GGACTCTA	-0.031
ACGGCGAG	-0.0171
ATATCGGG	0.436
AATGAAGT	-0.16
TCAAATGA	0.0153
CATAATCG	0.217
ATTAAGTC	-0.113
CTACCGCA	0.108
AAGAGGTG	-0.147
ACTCTAAA	-0.0227
CTGAAGTC	-0.0811
GCTTGCCA	-0.167
AGCGCGCT	0.0619
TCGGCGAA	0.34
AGGTATTA	0.0089
ACTACTAG	0.0349
AGAAGTCC	0.0588
CAATACGC	0.034
CTGAACGC	-0.0902
CCGGCCGG	0.456
